US7592316B2, “Peptides as NS3-serine protease inhibitors of hepatitis C virus” (Schering Corporation, priority 2000, dated 2009)

Target: HCV NS3/NS4A protease (strain 1a) (Hepatitis C virus genotype 1a, UniProt P27958)
Test: biochemical
Details: Table 5; HCV NS3/NS4A protease, spectrophotometric assay, 30° C., pH 6.5; read-out: Ki* Range

Row | Compound | Ki
1 | CCCC(NC(=O)[C@@H]1C2C(CN1C(=O)[C@@H](NC(=O)OC(C)CC)C1Cc3ccccc3C1)C2(C)C)C(=O)C(N)=O (stereo partly shown) | 101 to 1000 nM
2 | C=CCNC(=O)C(=O)C(CCC)NC(=O)C1C2C(CN1C(=O)C(CCC(=O)O)NC(=O)OCC(C)C)C2(C)C (stereo not shown) | > 1000 nM
3 | CCCC(NC(=O)[C@@H]1C2C(CN1C(=O)[C@@H](NC(=O)C1Cc3ccccc3N1C(=O)OC(C)(C)C)C1CCCCC1)C2(C)C)C(=O)C(N)=O (stereo partly shown) | 101 to 1000 nM
4 | CN(C)C(=O)[C@@H](NC(=O)CNC(=O)C(=O)C(CC1CCC1)NC(=O)[C@@H]1[C@H]2[C@@H](CN1C(=O)[C@@H](NC(=O)OC(C)(C)C)C(C)(C)C)C2(C)C)c1ccccc1 (stereo partly drawn) (Boc-[Tle][Pro(3S,4R-CMe2)][X32]G[Phg]-NMe2) | 1 to 100 nM
5 | CCCC(NC(=O)C1C2C(CN1C(=O)[C@@H](NC(=O)NC(C)C)C1Cc3ccccc3C1)C2(C)C)C(=O)C(N)=O (stereo partly shown) | 101 to 1000 nM
6 | C=CCC(NC(=O)[C@@H]1[C@H]2[C@@H](CN1C(=O)[C@@H](NC(=O)OC(C)(C)C)C(C)(C)C)C2(C)C)C(=O)C(=O)NCC(=O)NCc1cccc(C)c1 (stereo partly shown) | 101 to 1000 nM

Results, then the molecule that gave them:

Row | Ki | Compound
7 | 1 to 100 nM | CC(C)(C)COC(=O)NC(C(=O)N1CC2C(C1C(=O)NC(CC1CCC1)C(=O)C(N)=O)C2(C)C)C1CCCCC1 (stereo not shown)
8 | > 1000 nM | CC(C)[C@H](NC(=O)OC(C)(C)C)C(=O)N1C[C@H]2[C@@H](C1C(=O)NC1(C(=O)C(=O)O)CC1)C2(C)C (stereo partly shown)
9 | 101 to 1000 nM | CCCC(NC(=O)C1C2C(CN1C(=O)C(NC(=O)Cc1cccc(C)c1)C1CCCCC1)C2(C)C)C(=O)C(N)=O (stereo not shown)
10 | > 1000 nM | C=CCNC(=O)C(=O)[C@@H](CCC)NC(=O)C1C2CCC(C2)N1C(=O)[C@@H](NC(=O)OC(C)(C)C)C(C)(C)C (stereo partly shown)
11 | 1 to 100 nM | CC(C)(C)OC(=O)N[C@H](C(=O)N1C[C@H]2[C@@H]([C@H]1C(=O)NC(CC1CC1)C(=O)C(N)=O)C2(C)C)C1CCCCC1 (stereo partly shown)
12 | 101 to 1000 nM | CCCC(NC(=O)C1C2C(CN1C(=O)C(NC(=O)OC(C)C(C)(C)C)C1CCCCC1)C2(C)C)C(=O)C(N)=O (stereo not shown)
13 | 101 to 1000 nM | CCCC(NC(=O)[C@@H]1[C@@H]2[C@H](CN1C(=O)C(NC(=O)NC1(C)CC1)C1CCCCC1)C2(C)C)C(=O)C(N)=O (stereo partly shown)

Same assay, conditions: Table 6; HCV NS3/NS4A protease, 30° C., pH 6.5; read-out: Ki*

Row | Compound | Ki
14 | CC(C)(C)OC(=O)N[C@H](C(=O)N1C[C@H]2[C@@H]([C@H]1C(=O)NC(CC1CCC1)C(=O)C(N)=O)C21CCCC1)C(C)(C)C (stereo partly shown) | 101 to 1000 nM
15 | C#CCCNC(=O)C(=O)C(CCC=C)NC(=O)[C@@H]1[C@@H]2[C@H](CN1C(=O)[C@@H](NC(=O)OC(C)(C)C)C1CCCCC1)C2(C)C (stereo partly shown) | 1 to 100 nM
16 | C=CCNC(=O)C(=O)C(CCC)NC(=O)[C@@H]1[C@@H]2[C@H](CN1C(=O)C(NC(=O)OC(C)(C)C(F)(F)F)C1CCCCC1)C2(C)C (stereo partly shown) | 101 to 1000 nM
17 | C=CCCC(NC(=O)[C@@H]1[C@@H]2[C@H](CN1C(=O)[C@@H](NC(=O)OC(C)(C)C)C1CCCCC1)C2(C)C)C(=O)C(=O)NCCS(=O)(=O)NCC1CC1 (stereo partly shown) | 1 to 100 nM

Second part, the molecule after the results:

Row | Ki | Compound
18 | 1 to 100 nM | C=CCNC(=O)C(=O)C(CCCC)NC(=O)[C@@H]1[C@@H]2[C@H](CN1C(=O)[C@@H](NC(=O)NC1CC3CCC1C3)C1CCCCC1)C2(C)C (stereo partly shown)
19 | 1 to 100 nM | CC1C[C@H]2CN(C(=O)[C@@H](NC(=O)OC(C)(C)C)C3CCCCC3)[C@H](C(=O)NC(CCC(F)F)C(=O)C(=O)NCC(=O)N[C@H](C(=O)N(C)C)c3ccccc3)[C@H]2C1 (stereo partly shown)
20 | 1 to 100 nM | C#CCCNC(=O)C(=O)C(CCC=C)NC(=O)[C@@H]1[C@@H]2[C@H](CN1C(=O)[C@@H](NC(=O)NC(C)(C)C)C1CCCCC1)C2(C)C (stereo partly shown)
21 | 101 to 1000 nM | CCCC(NC(=O)[C@@H]1[C@@H]2[C@H](CN1C(=O)[C@@H](NC(=O)OC(C)(C)C)C(C)(C)C)C2(C)C)C(=O)C(=O)NCC(O)C(=O)OC(C)(C)C (stereo partly shown)
22 | 1 to 100 nM | C=CCCC(NC(=O)[C@@H]1[C@@H]2[C@H](CN1C(=O)[C@@H](NC(=O)NC(C)(C)C)C1CCCCC1)C2(C)C)C(=O)C(=O)NCCC(=O)CC(C)C (stereo partly shown)
23 | 1 to 100 nM | CN(C)C(=O)[C@@H](NC(=O)CNC(=O)C(=O)C(CC1CC1)NC(=O)[C@@H]1[C@@H]2[C@H](CN1C(=O)[C@@H](NC(=O)OC(C)(C)C)C1CCC(F)(F)CC1)C2(C)C)c1ccccc1 (stereo partly shown)
24 | 101 to 1000 nM | CC(C)(C)OC(=O)N[C@H](C(=O)N1C[C@@H]2CCC[C@@H]2[C@H]1C(=O)NC(CC1CC1)C(=O)C(N)=O)C1CCCCC1 (stereo partly shown)
25 | 1 to 100 nM | CN(C)C(=O)[C@@H](NC(=O)CNC(=O)C(=O)C(CCC(F)F)NC(=O)[C@@H]1[C@H]2CC3(CC3)C[C@H]2CN1C(=O)[C@@H](NC(=O)OC(C)(C)C)C(C)(C)C)c1ccccc1 (stereo partly shown)

*1 amine or outer side, *2 acyl side, *3 side chain or, on linkers, in order; H or OH if unused. Where a SMILES comes first, the peptide text is derived from it. [ ]: non-standard residue; d: D form. The star is where a group is joined. Pro(3S,4R-CMe2) = CC1(C)[C@H]2[C@@H](C(=O)O)NC[C@H]21; X32 = O=C(C(=O)[*:2])C(CC1CCC1)N[*:1]; Phg = N[C@H](C(=O)O)c1ccccc1; Tle = CC(C)(C)[C@H](N)C(=O)O; Boc = CC(C)(C)OC(=O)*
